Assay results as given in ChEMBL document CHEMBL1201862, “PubChem BioAssay data set” (2004).
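Following 48 hours of exposure in 96-well plates, responses at five concentrations were used to interpolate endpoints linearly. The concentration for 50% growth inhibition is given as GI50.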 Active and inactive are the calls of the source. No stated cut-off is given here; in the data, active = GI50 up to about 1.1 µM and inactive = higher.

The molecules below were run on NCI-H322M (assay: growth of human tumour cells (NCI), 48 h).

SMILES | GI50
c1ccc(OCCSCCCCCCCCCCSCCOc2ccccc2)cc1 | inactive: 39.4 µM
CCOC(=O)c1cn2c(n1)sc1cc(C)c(C)cc12 | inactive: 19.2 µM
CC(C)C1NC(=O)[C@H](C)OC(=O)[C@@H](C(C)C)NC(=O)[C@@H](C)OC(=O)C(C(C)C)NC(=O)[C@H](C)OC1=O (some centres undefined) | inactive: > 100 µM
CCOc1cc2c(=O)oc3c(OC)ccc4ccc(c1OC)c2c43 | inactive: 38.5 µM
NC(=O)CNC(=O)[C@@H]1C[C@@H](OCCC(=O)O)CN1C(=O)OCc1ccccc1 | inactive: > 100 µM
COC(=O)c1cc(C#N)[nH]c1-c1cccs1 | inactive: > 100 µM
Cc1cn(CC2=NCCN2)c(=O)[nH]c1=O | inactive: > 100 µM
CCCCCCCC/C=C\CCCCCCCC(=O)NCCN(CCN)C(=O)CCCCCCC/C=C\CCCCCCCC | inactive: > 100 µM
CN(C)C(=S)/N=c1\ssc(=S)n1Cc1ccccc1 | active: 0.508 µM
Cc1cc(-c2nc3ccccc3s2)ccc1NC(=O)[C@H](C)N | inactive: 7.94 µM
OCC(O)C(O)C(O)C(/C=N\Nc1ncnc2ccc(Br)cc12)=N/Nc1ncnc2ccc(Br)cc12 (centres undefined) | inactive: 4.23 µM
NNC(=O)C1(NC(=O)c2ccccc2)C(c2ccccc2)C(c2ccccc2)=NN1c1ccccc1 (centres undefined) | inactive: 38.6 µM
O=P1(Oc2ccc(Cl)cc2Cl)Oc2ccc3ccccc3c2-c2c(ccc3ccccc23)O1 | inactive: 23.7 µM
CC1=NN(C(=O)CC(=O)Nc2ccccc2C)C(=O)C1/N=N/c1ccc(C(=O)O)cc1 (centres undefined) | inactive: > 100 µM
Cn1cc(C(=O)c2ccccc2)ccc1=O | inactive: > 100 µM
COC(=O)C1C(C(=O)OC)N(Cc2ccccc2)C(=O)N1Cc1ccccc1 (centres undefined) | inactive: > 100 µM
COC(=O)c1cc(C)ccc1CC(Cc1cccc(C)c1)C(=O)OC (centres undefined) | inactive: > 100 µM
COC(=O)CCc1cccnc1/C=N/O | inactive: > 100 µM
NC(CO)C(=O)NCC(=O)O (centres undefined) | inactive: > 100 µM
COc1cccc(C(=O)N[C@@H]2[C@H](O)[C@@H](CO)O[C@H]2n2cnc3c(N)ncnc32)c1 | inactive: > 100 µM
N/N=C(/Cc1nc2ccc(C(=O)c3ccccc3)cc2nc1O)C(=O)Nc1ccc([N+](=O)[O-])cc1[N+](=O)[O-] | inactive: > 100 µM
COc1ccc(/C=C/c2cnc3ccccc3n2)cc1OC | inactive: 77.6 µM

SMILES | GI50
CC(=NNC(=S)Nc1ccccc1)c1cccc(C(C)=NNC(=S)Nc2ccccc2)n1 | inactive: 2.86 µM
O=C1C(Cl)=C(N[C@@H](Cc2ccccc2)C(=O)OCc2ccccc2)C(=O)c2c(O)ccc(O)c21 | inactive: 6.35 µM
Clc1c(Cl)c2c(Cl)c(Cl)c1C[PH](c1ccccc1)(c1ccccc1)CC[PH](c1ccccc1)(c1ccccc1)Cc1c(Cl)c(Cl)c(c(Cl)c1Cl)C[PH](c1ccccc1)(c1ccccc1)CC[PH](c1ccccc1)(c1ccccc1)C2 | inactive: 3.53 µM
COc1ccc(C(=O)O/N=C2/CCCCC2CN(C)C)cc1 (centres undefined) | inactive: > 100 µM
O=C1C2C3CCC(C2C(=O)N1CO)C1C2C(=O)N(CO)C(=O)C2C31 (centres undefined) | inactive: > 100 µM
CC(O)(/C=C/c1ccccc1)P(=O)(O)c1ccccc1 (centres undefined) | inactive: > 100 µM
CCc1nnc(CC)n1NCCCC(=O)O | inactive: > 100 µM
O=C1C=CC(=O)c2nc3c(cc21)CCC3 | inactive: > 100 µM
COC(=O)CCC(=O)Nc1cccc(C(F)(F)F)c1 | inactive: > 100 µM
CC(C)=CCC/C(C)=C/CC/C(C)=C/[C@@H]1[C@@H](CO)[C@]1(C)CC/C=C(\C)CCC=C(C)C | inactive: > 100 µM
Cc1cc2c(cc1N)C(C)C1(CCC(=O)N2Cc2ccccc2)OCCO1 (centres undefined) | inactive: > 100 µM
C[n+]1ccccc1/C=C/c1ccc2c(c1)OCO2 | inactive: > 10 µM
COC(=O)c1c2c(cc3c1CC1(C3)Cc3cc4c(c(C(C)=O)c3C1)CCC4)C=CC2 (centres undefined) | inactive: > 31.6 µM
CC(C)(O)[C@H](CCO)O[Si](c1ccccc1)(c1ccccc1)C(C)(C)C | inactive: 16.3 µM
CC(=O)Oc1ccc2cc(Oc3ccccc3)c(=O)oc2c1 | inactive: > 100 µM
COC(=O)c1c(C)cccc1C1CN=NC12Cc1ccccc1C2=O (centres undefined) | inactive: > 100 µM
COC(=O)[C@@H]1C[C@@]23CCCN4CC[C@@]5(c6cccc(OC)c6N(C=O)[C@]15CC2)[C@@H]43 | inactive: > 100 µM
C=C1C2C[C@@H]3OC4CC5O[C@]6(CC5OC4C(C)C3OC(=O)CC3CC[C@@H]4OC5C7OC8C[C@](CCC9CC(=C)[C@H](CCC(C[C@H]1C)O2)O9)(OC7C4O3)O[C@@H]85)C[C@@H]1O[C@@]2(CC(C)[C@@H]3OC(CC(=O)CCO)C(O)C[C@@H]3O2)CC(C)[C@@H]1O6 (some centres undefined) | active: < 0.001 µM
Cc1sc2c(c1C)/C(=N\O)c1cccn1-2 | inactive: 48 µM
CN(C)CCCNc1ccnc2cccc([N+](=O)[O-])c12 | inactive: 15.7 µM
CCCC(=O)NC(Nc1ccc(S(=O)(=O)Nc2cc(C)on2)cc1)(C(=O)OCC)C(F)(F)F (centres undefined) | inactive: > 100 µM
O=C(O)/C=C/c1ccc(OS(=O)(=O)O)cc1 | inactive: > 100 µM
